From patent US11685745B2, “Substituted benzoxazole and benzofuran compounds as PDE7 inhibitors” (Dart NeuroScience, LLC, priority 2017, dated 2023)

Target: N-terminal truncated recombinant human PDE7B enzyme (Homo sapiens (Human), UniProt Q9NP56)
Experiment: biochemical

Row | Structure (SMILES) | IC50 [nM]
1 | CC(C)n1cnnc1CN(C)Cc1cc2cc(Cl)c3c(c2o1)C1(CCCCC1)NC(=O)N3 [Example 30, 5′-Chloro-2′-((((4-isopropyl-4H-1,2,4-triazol-3-yl)methyl)(methyl)amino)methyl)-6′H-spiro[cyclohexane-1,9′-furo[2,3-f]quinazolin]-7′(8′H)-one] | 10 to 100
2 | O=C1Nc2c(Cl)cc3nc(C(=O)N4CCN(CCF)CC4)oc3c2C2(CCCCC2)N1 [Example 213, 5-Chloro-2-[4-(2-fluoroethyl)piperazine-1-carbonyl]-7,8-dihydro-6H-spiro[[1,3]oxazolo[5,4-f]quinazoline-9,1′-cyclohexane]-7-one] | 10 to 100
3 | O=C1Nc2c(Cl)cc3nc(CO)oc3c2C2(CCCCC2)N1 [Example 20, 5′-Chloro-2′-(hydroxymethyl)-6′H-spiro[cyclohexane-1,9′-oxazolo[5,4-f]quinazolin]-7′(8′H)-one] | 10 to 100
4 | O=C1Nc2c(Cl)cc3nc(CNC[C@H]4CCOC4)oc3c2C2(CCCCC2)N1 [Example 162, 5-Chloro-2-({[(3R)-oxolan-3-ylmethyl]amino}methyl)-7,8-dihydro-6H-spiro[[1,3]oxazolo[5,4-f]quinazoline-9,1′-cyclohexane]-7-one] | 10 to 100
5 | COC[C@@H]1CCCN1C(=O)c1nc2cc(Cl)c3c(c2o1)C1(CCCCC1)NC(=O)N3 [Example 190, 5-Chloro-2-[(2S)-2-(methoxymethyl)pyrrolidine-1-carbonyl]-7,8-dihydro-6H-spiro[[1,3]oxazolo[5,4-f]quinazoline-9,1′-cyclohexane]-7-one] | 10 to 100
6 | CN(Cc1cccnc1)Cc1cc2cc(Cl)c3c(c2o1)C1(CCCCC1)NC(=O)N3 [Example 514, 5′-Chloro-2′-{[methyl(pyridin-3-ylmethyl)amino]methyl}-7′,8′-dihydro-6′H-spiro[cyclohexane-1,9′-furo[2,3-f]quinazoline]-7′-one] | 100 to 1000
7 | O=C1Nc2c(Cl)cc3nc(C(=O)NC4CCOCC4F)oc3c2C2(CCCCC2)N1 (centres unmarked) [Example 216, 5-Chloro-N-(3-fluorooxan-4-yl)-7-oxo-7,8-dihydro-6H-spiro[[1,3]oxazolo[5,4-f]quinazoline-9,1′-cyclohexane]-2-carboxamide] | 100 to 1000
8 | O=C1Nc2c(Cl)cc3cc(C(=O)N(CCO)C4CCCCC4)oc3c2C2(CCCCC2)N1 [Example 465, 5′-Chloro-N-cyclohexyl-N-(2-hydroxyethyl)-7′-oxo-7′,8′-dihydro-6′H-spiro[cyclohexane-1,9′-furo[2,3-f]quinazoline]-2′-carboxamide] | 10 to 100
9 | O=C1Nc2c(Cl)cc3nc(CNC4C5COCC54)oc3c2C2(CCCCC2)N1 (centres unmarked) [Example 146, 5-Chloro-2-[({3-oxabicyclo[3.1.0]hexan-6-yl}amino)methyl]-7,8-dihydro-6H-spiro[[1,3]oxazolo[5,4-f]quinazoline-9,1′-cyclohexane]-7-one] | 10 to 100
10 | O=C1Nc2c(Cl)cc3nc(C(=O)O)oc3c2C2(CCCCC2)N1 [Example 2, 5′-Chloro-7′-oxo-7′,8′-dihydro-6′H-spiro[cyclohexane-1,9′-oxazolo[5,4-f]quinazoline]-2′-carboxylic acid] | 10 to 100
11 | O=C1Nc2c(Cl)cc3cc(C(=O)N4CCCC(O)C4)oc3c2C2(CCCCC2)N1 (centres unmarked) [Example 274, 5′-Chloro-2′-(3-hydroxypiperidine-1-carbonyl)-7′,8′-dihydro-6′H-spiro[cyclohexane-1,9′-furo[2,3-f]quinazoline]-7′-one] | 10 to 100
12 | CN(Cc1ccccn1)C(=O)c1cc2cc(Cl)c3c(c2o1)C1(CCCCC1)NC(=O)N3 [Example 419, 5′-Chloro-N-methyl-7′-oxo-N-(pyridin-2-ylmethyl)-7′,8′-dihydro-6′H-spiro[cyclohexane-1,9′-furo[2,3-f]quinazoline]-2′-carboxamide] | 10 to 100
13 | CN1CCN(Cc2nc3cc(Cl)c4c(c3o2)C2(CCCCC2)NC(=O)N4)CC1=O [Example 57, 5-Chloro-2-[(4-methyl-3-oxopiperazin-1-yl)methyl]-7,8-dihydro-6H-spiro[[1,3]oxazolo[5,4-f]quinazoline-9,1′-cyclohexane]-7-one] | 10 to 100
14 | O=C1Nc2c(Cl)cc3cc(CNC4CCS(=O)(=O)CC4)oc3c2C2(CCCCC2)N1 [Example 523, 4-({5′-Chloro-7′-oxo-7′,8′-dihydro-6′H-spiro[cyclohexane-1,9′-furo[2,3-f]quinazoline]-2′-ylmethyl}amino)-thiane-1,1-dione] | 10 to 100
15 | O=C1Nc2c(Cl)cc3nc(CNC[C@@H]4CCOC4)oc3c2C2(CCCCC2)N1 [Example 167, 5-Chloro-2-({[(3S)-oxolan-3-ylmethyl]amino}methyl)-7,8-dihydro-6H-spiro[[1,3]oxazolo[5,4-f]quinazoline-9,1′-cyclohexane]-7-one] | 10 to 100
16 | O=C1Nc2c(Cl)cc3cc(C(=O)N4CCC5(CC4)NCCc4sccc45)oc3c2C2(CCCCC2)N1 [Example 348, 5′-Chloro-2′-({6′,7′-dihydro-5′H-spiro[piperidine-4,4′-thieno[3,2-c]pyridine]-1-yl}carbonyl)-7′,8′-dihydro-6′H-spiro[cyclohexane-1,9′-furo[2,3-f]quinazoline]-7′-one] | 10 to 100
17 | COC1CCN(C(=O)c2nc3cc(Cl)c4c(c3o2)C2(CCCCC2)NC(=O)N4)C1 (centres unmarked) [Example 199, 5-Chloro-2-(3-methoxypyrrolidine-1-carbonyl)-7,8-dihydro-6H-spiro[[1,3]oxazolo[5,4-f]quinazoline-9,1′-cyclohexane]-7-one] | 10 to 100
18 | O=C1Nc2c(Cl)cc3cc(CN4C[C@@H]5C[C@H]4CO5)oc3c2C2(CCCCC2)N1 [Example 240, 5′-Chloro-2′-[(1S,4S)-2-oxa-5-azabicyclo[2.2.1]heptan-5-ylmethyl]-7′,8′-dihydro-6′H-spiro[cyclohexane-1,9′-furo[2,3-f]quinazoline]-7′-one] | 10 to 100
19 | CN(C)CCCN(C)Cc1cc2cc(Cl)c3c(c2o1)C1(CCCCC1)NC(=O)N3 [Example 508, 5′-Chloro-2′-({[3-(dimethylamino)propyl](methyl)amino}methyl)-7′,8′-dihydro-6′H-spiro[cyclohexane-1,9′-furo[2,3-f]quinazoline]-7′-one] | 100 to 1000
20 | CN(Cc1nc2cc(Cl)c3c(c2o1)C1(CCCCC1)NC(=O)N3)CC1CCOCC1 [Example 81, 5-Chloro-2-{[methyl(oxan-4-ylmethyl)amino]methyl}-7,8-dihydro-6H-spiro[[1,3]oxazolo[5,4-f]quinazoline-9,1′-cyclohexane]-7-one] | 10 to 100
21 | O=C1Nc2c(Cl)cc3cc(C(=O)N4CC(O)C4)oc3c2C2(CCCCC2)N1 [Example 366, 5′-Chloro-2′-(3-hydroxyazetidine-1-carbonyl)-7′,8′-dihydro-6′H-spiro[cyclohexane-1,9′-furo[2,3-f]quinazoline]-7′-one] | 100 to 1000
22 | Cc1nn(C)c(C)c1CCCN(C)C(=O)c1cc2cc(Cl)c3c(c2o1)C1(CCCCC1)NC(=O)N3 [Example 296, 5′-Chloro-N-methyl-7′-oxo-N-[3-(trimethyl-1H-pyrazol-4-yl)propyl]-7′,8′-dihydro-6′H-spiro[cyclohexane-1,9′-furo[2,3-f]quinazoline]-2′-carboxamide] | 10 to 100
23 | CC(C)N(CCO)Cc1cc2cc(Cl)c3c(c2o1)C1(CCCCC1)NC(=O)N3 [Example 473, 5′-Chloro-2′-{[(2-hydroxyethyl)(propan-2-yl)amino]methyl}-7′,8′-dihydro-6′H-spiro[cyclohexane-1,9′-furo[2,3-f]quinazoline]-7′-one] | 100 to 1000
